The source of these data is the supplement of paper PMC12230231.

± gives the standard deviation of the averaged measurements. Restriction of a single-cycle SIVsab GFP reporter by TRIM5α v1-loop variants in CRFK cells. Human variants: read share among cells still uninfected after two challenges over input, higher = gained restriction. Rhesus variants: share among infected cells over input, higher = lost restriction. Reporter dose not given per row. No active / inactive call per row; the paper calls a change when both replicates lie above its controls (mean + 2 SD of stop or wild-type variants, or the top frameshift score). Residues outside the varied loop are taken from Swiss-Prot. The paper reads the human single-substitution scores as noise; they and the rhesus combinations repeat poorly (rank correlation 0.3 to 0.4), indel scores repeat only for the top variants, rhesus substitutions well (0.9).

This series deals with SIVsab (simian immunodeficiency virus of sabaeus monkeys), single-cycle GFP reporter, in CRFK cells. Nature of the series: enrichment among uninfected cells over input (fold); higher = stronger restriction. The conditions noted are these: library: insertions and deletions. On the procedure:
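Pools of CRFK cells expressing variants of the TRIM5α v1 loop were challenged with the single-cycle reporter, sorted by GFP and sequenced; mean of two replicates.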
Take “MASGILVNVKEEVTCPICLELLTQPLSLDCGHSFCQACLTANHKKSMLDKGESSCPVCRISYQPENIRPNRHVANIVEKLREVKLSPEGQKVDHCARHGEKLLLFCQEDGKVICWLCERSQEHRGHHTFLTEEVAREYQVKLQAALEMLRQKQQEAEELEADIREEKASWKTQIQYDKTNVLADFEQLRDILDWEESNELQNLEKEEEDILKSLTNSETEMVQQTQSLRELISDLEHRLQGSVMELLQGVDGVIKRTENVTLKKPETFPKNQRRVFRAPDLKGMLEVFRELTDVRRYWVDVTVAPNNISCAVISEDKRQVSSPKPQIIYGARGTRYQTFVNFNQSITSGKHYWEVDVSKKTAWILGVCAGFQPDAMCNIEKNENYQPKYGYWVIGLEEGVKCSAFQDSSFHTPSVPFIVPLSVIICPDRVGVFLDYEACTVSFFNITNHGFLIYKFSHCSFSQPVFPYLNPRKCGVPMTLCSPSS [human TRIM5α, 8-codon deletion at 344]”: the enrichment turned out to be 1.84 ± 0.76.
As to “MASGILVNVKEEVTCPICLELLTQPLSLDCGHSFCQACLTANHKKSMLDKGESSCPVCRISYQPENIRPNRHVANIVEKLREVKLSPEGQKVDHCARHGEKLLLFCQEDGKVICWLCERSQEHRGHHTFLTEEVAREYQVKLQAALEMLRQKQQEAEELEADIREEKASWKTQIQYDKTNVLADFEQLRDILDWEESNELQNLEKEEEDILKSLTNSETEMVQQTQSLRELISDLEHRLQGSVMELLQGVDGVIKRTENVTLKKPETFPKNQRRVFRAPDLKGMLEVFRELTDVRRYWVDVTVAPNNISCAVISEDKRQVSSPKPQIIYGARGTRYQTFVNFNQTFVNFNYCTGILGSQSITSGKHYWEVDVSKKTAWILGVCAGFQPDAMCNIEKNENYQPKYGYWVIGLEEGVKCSAFQDSSFHTPSVPFIVPLSVIICPDRVGVFLDYEACTVSFFNITNHGFLIYKFSHCSFSQPVFPYLNPRKCGVPMTLCSPSS [human TRIM5α, 7-codon duplication at 337]”, the enrichment amounted to 0.649 ± 0.57.
As for “MASGILVNVKEEVTCPICLELLTQPLSLDCGHSFCQACLTANHKKSMLDKGESSCPVCRISYQPENIRPNRHVANIVEKLREVKLSPEGQKVDHCARHGEKLLLFCQEDGKVICWLCERSQEHRGHHTFLTEEVAREYQVKLQAALEMLRQKQQEAEELEADIREEKASWKTQIQYDKTNVLADFEQLRDILDWEESNELQNLEKEEEDILKSLTNSETEMVQQTQSLRELISDLEHRLQGSVMELLQGVDGVIKRTENVTLKKPETFPKNQRRVFRAPDLKGMLEVFRELTDVRRYWVDVTVAPNNISCAVISEDKRQVSSPKPQIIYGARGTRYQTFVNFNRYQTFVNFNYCTGILGSQSITSGKHYWEVDVSKKTAWILGVCAGFQPDAMCNIEKNENYQPKYGYWVIGLEEGVKCSAFQDSSFHTPSVPFIVPLSVIICPDRVGVFLDYEACTVSFFNITNHGFLIYKFSHCSFSQPVFPYLNPRKCGVPMTLCSPSS [human TRIM5α, 9-codon duplication at 335]”, the enrichment turned out to be 0.492 ± 0.69.
In the case of “MASGILVNVKEEVTCPICLELLTQPLSLDCGHSFCQACLTANHKKSMLDKGESSCPVCRISYQPENIRPNRHVANIVEKLREVKLSPEGQKVDHCARHGEKLLLFCQEDGKVICWLCERSQEHRGHHTFLTEEVAREYQVKLQAALEMLRQKQQEAEELEADIREEKASWKTQIQYDKTNVLADFEQLRDILDWEESNELQNLEKEEEDILKSLTNSETEMVQQTQSLRELISDLEHRLQGSVMELLQGVDGVIKRTENVTLKKPETFPKNQRRVFRAPDLKGMLEVFRELTDVRRYWVDVTVAPNNISCAVISEDKRQVSSPKPQIIYGARGTRYQTFVNFNSITSGKHYWEVDVSKKTAWILGVCAGFQPDAMCNIEKNENYQPKYGYWVIGLEEGVKCSAFQDSSFHTPSVPFIVPLSVIICPDRVGVFLDYEACTVSFFNITNHGFLIYKFSHCSFSQPVFPYLNPRKCGVPMTLCSPSS [human TRIM5α, 9-codon deletion at 344]”, the enrichment turned out to be 2.11 ± 2.1.
“MASGILVNVKEEVTCPICLELLTQPLSLDCGHSFCQACLTANHKKSMLDKGESSCPVCRISYQPENIRPNRHVANIVEKLREVKLSPEGQKVDHCARHGEKLLLFCQEDGKVICWLCERSQEHRGHHTFLTEEVAREYQVKLQAALEMLRQKQQEAEELEADIREEKASWKTQIQYDKTNVLADFEQLRDILDWEESNELQNLEKEEEDILKSLTNSETEMVQQTQSLRELISDLEHRLQGSVMELLQGVDGVIKRTENVTLKKPETFPKNQRRVFRAPDLKGMLEVFRELTDVRRYWVDVTVAPNNISCAVISEDKRQVSSPKPQIIYGARGTRYQTFVNFNSQSITSGKHYWEVDVSKKTAWILGVCAGFQPDAMCNIEKNENYQPKYGYWVIGLEEGVKCSAFQDSSFHTPSVPFIVPLSVIICPDRVGVFLDYEACTVSFFNITNHGFLIYKFSHCSFSQPVFPYLNPRKCGVPMTLCSPSS [human TRIM5α, 7-codon deletion at 344]” displayed an enrichment of 1.9 ± 0.94.
“MASGILVNVKEEVTCPICLELLTQPLSLDCGHSFCQACLTANHKKSMLDKGESSCPVCRISYQPENIRPNRHVANIVEKLREVKLSPEGQKVDHCARHGEKLLLFCQEDGKVICWLCERSQEHRGHHTFLTEEVAREYQVKLQAALEMLRQKQQEAEELEADIREEKASWKTQIQYDKTNVLADFEQLRDILDWEESNELQNLEKEEEDILKSLTNSETEMVQQTQSLRELISDLEHRLQGSVMELLQGVDGVIKRTENVTLKKPETFPKNQRRVFRAPDLKGMLEVFRELTDVRRYWVDVTVAPNNISCAVISEDKRQVSSPKPQIIYGARGTRYQTFVNFNTFVNFNYCTGILGSQSITSGKHYWEVDVSKKTAWILGVCAGFQPDAMCNIEKNENYQPKYGYWVIGLEEGVKCSAFQDSSFHTPSVPFIVPLSVIICPDRVGVFLDYEACTVSFFNITNHGFLIYKFSHCSFSQPVFPYLNPRKCGVPMTLCSPSS [human TRIM5α, 6-codon duplication at 338]” came in with an enrichment of 0.787 ± 1.
Turning to “MASGILVNVKEEVTCPICLELLTQPLSLDCGHSFCQACLTANHKKSMLDKGESSCPVCRISYQPENIRPNRHVANIVEKLREVKLSPEGQKVDHCARHGEKLLLFCQEDGKVICWLCERSQEHRGHHTFLTEEVAREYQVKLQAALEMLRQKQQEAEELEADIREEKASWKTQIQYDKTNVLADFEQLRDILDWEESNELQNLEKEEEDILKSLTNSETEMVQQTQSLRELISDLEHRLQGSVMELLQGVDGVIKRTENVTLKKPETFPKNQRRVFRAPDLKGMLEVFRELTDVRRYWVDVTVAPNNISCAVISEDKRQVSSPKPQIIYGARGTRYQTFVNFNTGILGSQSITSGKHYWEVDVSKKTAWILGVCAGFQPDAMCNIEKNENYQPKYGYWVIGLEEGVKCSAFQDSSFHTPSVPFIVPLSVIICPDRVGVFLDYEACTVSFFNITNHGFLIYKFSHCSFSQPVFPYLNPRKCGVPMTLCSPSS [human TRIM5α, 2-codon deletion at 344]”, the enrichment is 0.462 ± 0.3.
“MASGILVNVKEEVTCPICLELLTQPLSLDCGHSFCQACLTANHKKSMLDKGESSCPVCRISYQPENIRPNRHVANIVEKLREVKLSPEGQKVDHCARHGEKLLLFCQEDGKVICWLCERSQEHRGHHTFLTEEVAREYQVKLQAALEMLRQKQQEAEELEADIREEKASWKTQIQYDKTNVLADFEQLRDILDWEESNELQNLEKEEEDILKSLTNSETEMVQQTQSLRELISDLEHRLQGSVMELLQGVDGVIKRTENVTLKKPETFPKNQRRVFRAPDLKGMLEVFRELTDVRRYWVDVTVAPNNISCAVISEDKRQVSSPKPQIIYGARGTRYQTFVNFNVNFNYCTGILGSQSITSGKHYWEVDVSKKTAWILGVCAGFQPDAMCNIEKNENYQPKYGYWVIGLEEGVKCSAFQDSSFHTPSVPFIVPLSVIICPDRVGVFLDYEACTVSFFNITNHGFLIYKFSHCSFSQPVFPYLNPRKCGVPMTLCSPSS [human TRIM5α, 4-codon duplication at 340]” had an enrichment of 0.819 ± 0.69.
